{
  "source": "patent US20250171549A1",
  "biological_target": "human CCR8 (human) (UniProt P51685)",
  "sequence (P51685 whole entry)": "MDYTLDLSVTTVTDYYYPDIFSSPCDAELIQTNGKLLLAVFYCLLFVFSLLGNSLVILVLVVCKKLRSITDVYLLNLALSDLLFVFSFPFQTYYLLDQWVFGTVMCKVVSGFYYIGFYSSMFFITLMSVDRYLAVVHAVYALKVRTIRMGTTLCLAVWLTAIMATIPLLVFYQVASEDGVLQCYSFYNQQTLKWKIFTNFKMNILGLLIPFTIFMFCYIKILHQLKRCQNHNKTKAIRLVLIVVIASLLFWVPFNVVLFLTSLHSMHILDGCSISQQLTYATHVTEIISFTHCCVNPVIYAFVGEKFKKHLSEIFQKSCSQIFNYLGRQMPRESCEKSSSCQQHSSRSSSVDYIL",
  "test": "flow cytometry, primary human Tregs, purified antibody 20 ug/ml",
  "note": "Some entries of the source have several records that differ or are many. The list is limited to them. The source may hold further records. Values given together appear to be repeats (runs, samples, wells or individuals); a mean can stand among them.",
  "data": [
    {"substance": "anti-human CCR8 antibody clone 433H (BD 747578)", "values": [
      {"measurement": "CCR8+CD127-CD25+CD4, % positive", "result": "83.4%, 29.4%, 67.5% [columns of one line]"}
    ]}
  ]
}
